# Measured values taken from patent US20050074855A1 (Regeneron, published 2005).
# B1: hIL18Rα-Fc-anti-hIL18 ScFv (Fc fusion)
# chain: CTSRPHITVVEGEPFYLKHCSCSLAHEIETTTKSWYKSSGSQEHVELNPRSSSRIALHDCVLEFWPVELNDTGSYFFQMKNYTQKWKLNVIRRNKHSCFTERQVTSKIVEVKKFFQITCENSYYQTLVNSTSLYKNCKKLLLENNKNPTIKKNAEFEDQGYYSCVHFLHHNGKLFNITKTFNITIVEDRSNIVPVLLGPKLNHVAVELGKNVRLNCSALLNEEDVIYWMFGEENGSDPNIHEEKEMRIMTPEGKWHASKVLRIENIGESNLNVLYNCTVASTGGTDTKSFILVRKADMADIPGHVFTRSG[not shown - human IgG1 Fc]EIQLQQSGPELVKPGASVKVSCKASGYSFTDYFIYWVKQSHGKSLEWIGDIDPYNGDTSYNQKFRDKATLTVDQSSTTAFMHLNSLTSEDSAVYFCARGLRFWGQGTLVTVSAGGGGSGGGGSGGGGSDIQMTQSPSSLSASLGERVSLTCRASQDIGSKLYWLQQEPDGTFKRLIYATSSLDSGVPKRFSGSRSGSDYSLTISSLESEDFVDYYCLQYASSPYTFGGGTKLAIKR
# notes: No linker between components is stated; also called construct (3)
# B2: hIL18Ra-anti-hIL18 ScFv-Fc (Fc fusion)
# chain: CTSRPHITVVEGEPFYLKHCSCSLAHEIETTTKSWYKSSGSQEHVELNPRSSSRIALHDCVLEFWPVELNDTGSYFFQMKNYTQKWKLNVIRRNKHSCFTERQVTSKIVEVKKFFQITCENSYYQTLVNSTSLYKNCKKLLLENNKNPTIKKNAEFEDQGYYSCVHFLHHNGKLFNITKTFNITIVEDRSNIVPVLLGPKLNHVAVELGKNVRLNCSALLNEEDVIYWMFGEENGSDPNIHEEKEMRIMTPEGKWHASKVLRIENIGESNLNVLYNCTVASTGGTDTKSFILVRKADMADIPGHVFTRGGGGSGGGGSGGGGSEIQLQQSGPELVKPGASVKVSCKASGYSFTDYFIYWVKQSHGKSLEWIGDIDPYNGDTSYNQKFRDKATLTVDQSSTTAFMHLNSLTSEDSAVYFCARGLRFWGQGTLVTVSAGGGGSGGGGSGGGGSDIQMTQSPSSLSASLGERVSLTCRASQDIGSKLYWLQQEPDGTFKRLIYATSSLDSGVPKRFSGSRSGSDYSLTISSLESEDFVDYYCLQYASSPYTFGGGTKLAIKRSG[not shown - human IgG1 Fc]
# notes: Tested as CHO supernatant; also called hIL-18Rα-(G4S)3-anti-hIL-18 scFv-Fc; construct (1)
# B3: anti-hIL18 ScFv-Fc-hIL18Rα (Fc fusion)
# chain: EIQLQQSGPELVKPGASVKVSCKASGYSFTDYFIYWVKQSHGKSLEWIGDIDPYNGDTSYNQKFRDKATLTVDQSSTTAFMHLNSLTSEDSAVYFCARGLRFWGQGTLVTVSAGGGGSGGGGSGGGGSDIQMTQSPSSLSASLGERVSLTCRASQDIGSKLYWLQQEPDGTFKRLIYATSSLDSGVPKRFSGSRSGSDYSLTISSLESEDFVDYYCLQYASSPYTFGGGTKLAIKRSG[not shown - human IgG1 Fc]CTSRPHITVVEGEPFYLKHCSCSLAHEIETTTKSWYKSSGSQEHVELNPRSSSRIALHDCVLEFWPVELNDTGSYFFQMKNYTQKWKLNVIRRNKHSCFTERQVTSKIVEVKKFFQITCENSYYQTLVNSTSLYKNCKKLLLENNKNPTIKKNAEFEDQGYYSCVHFLHHNGKLFNITKTFNITIVEDRSNIVPVLLGPKLNHVAVELGKNVRLNCSALLNEEDVIYWMFGEENGSDPNIHEEKEMRIMTPEGKWHASKVLRIENIGESNLNVLYNCTVASTGGTDTKSFILVRKADMADIPGHVFTR
# notes: No linker between components is stated; also called construct (4)
# B4: hIL18Rα-Fc (Fc fusion)
# chain: CTSRPHITVVEGEPFYLKHCSCSLAHEIETTTKSWYKSSGSQEHVELNPRSSSRIALHDCVLEFWPVELNDTGSYFFQMKNYTQKWKLNVIRRNKHSCFTERQVTSKIVEVKKFFQITCENSYYQTLVNSTSLYKNCKKLLLENNKNPTIKKNAEFEDQGYYSCVHFLHHNGKLFNITKTFNITIVEDRSNIVPVLLGPKLNHVAVELGKNVRLNCSALLNEEDVIYWMFGEENGSDPNIHEEKEMRIMTPEGKWHASKVLRIENIGESNLNVLYNCTVASTGGTDTKSFILVRKADMADIPGHVFTRSG[not shown - human IgG1 Fc]
# notes: also called construct (5); hIL-18Rα alone
# B5: anti-hIL18 ScFv-hIL18Rα-Fc (Fc fusion)
# chain: EIQLQQSGPELVKPGASVKVSCKASGYSFTDYFIYWVKQSHGKSLEWIGDIDPYNGDTSYNQKFRDKATLTVDQSSTTAFMHLNSLTSEDSAVYFCARGLRFWGQGTLVTVSAGGGGSGGGGSGGGGSDIQMTQSPSSLSASLGERVSLTCRASQDIGSKLYWLQQEPDGTFKRLIYATSSLDSGVPKRFSGSRSGSDYSLTISSLESEDFVDYYCLQYASSPYTFGGGTKLAIKRGGGGSGGGGSGGGGSCTSRPHITVVEGEPFYLKHCSCSLAHEIETTTKSWYKSSGSQEHVELNPRSSSRIALHDCVLEFWPVELNDTGSYFFQMKNYTQKWKLNVIRRNKHSCFTERQVTSKIVEVKKFFQITCENSYYQTLVNSTSLYKNCKKLLLENNKNPTIKKNAEFEDQGYYSCVHFLHHNGKLFNITKTFNITIVEDRSNIVPVLLGPKLNHVAVELGKNVRLNCSALLNEEDVIYWMFGEENGSDPNIHEEKEMRIMTPEGKWHASKVLRIENIGESNLNVLYNCTVASTGGTDTKSFILVRKADMADIPGHVFTRSG[not shown - human IgG1 Fc]
# notes: Tested as CHO supernatant; also called anti-hIL-18 scFv-(G4S)3-hIL-18Rα-Fc; construct (2)
# B6: anti-hIL18 ScFv-Fc (Fc fusion)
# chain: EIQLQQSGPELVKPGASVKVSCKASGYSFTDYFIYWVKQSHGKSLEWIGDIDPYNGDTSYNQKFRDKATLTVDQSSTTAFMHLNSLTSEDSAVYFCARGLRFWGQGTLVTVSAGGGGSGGGGSGGGGSDIQMTQSPSSLSASLGERVSLTCRASQDIGSKLYWLQQEPDGTFKRLIYATSSLDSGVPKRFSGSRSGSDYSLTISSLESEDFVDYYCLQYASSPYTFGGGTKLAIKRSG[not shown - human IgG1 Fc]
# notes: Tested as CHO supernatant; also called construct (6); anti-hIL-18 ScFv alone
# Molecular target: T1, human IL-18 (human, UniProt Q14116 37-193)
# T1 construct: Soluble analyte injected over the captured fusion proteins in the BIAcore assay; also called hIL-18; hIL18
# Experiment: SPR (BIAcore 2000), fusion captured by anti-human Fc, hIL-18 injected
Kd,koff,kon,Binder
0.092 nM,3.7e-05 s⁻¹,404000 M⁻¹ s⁻¹,B1
0.053 nM,2.12e-05 s⁻¹,400000 M⁻¹ s⁻¹,B2
0.137 nM,3.9e-05 s⁻¹,285000 M⁻¹ s⁻¹,B3
4.18 nM,0.00653 s⁻¹,1.56e+06 M⁻¹ s⁻¹,B4
0.042 nM,1.61e-05 s⁻¹,387000 M⁻¹ s⁻¹,B5
0.193 nM,4.65e-05 s⁻¹,241000 M⁻¹ s⁻¹,B6
